Measured values: the supplement of paper PMC11876631
± gives the standard deviation of the averaged measurements. Laboratory Escherichia coli strains with one amino-acid change in an essential protein, pooled on minimal glucose agar with carbenicillin or gentamicin at twice the control MIC (plus kanamycin and chloramphenicol for the plasmids), 48 h. Fold change of barcode share against drug-free plates; higher = less susceptible. Active = above 20 in both replicates (the paper's putatively resistant). '<' = one read or none on drug, '>' = one read or none on a drug-free plate. Shares are relative, so most strains fall below 1 when a few take over. Listed are strains with at least 15 reads on both drug-free plates, and hits; most hits rest on fewer reference reads. Replicate rank correlation about 0.5. Edits are read from barcodes.

B1: metB L151A (protein)
chain: MTRKQATIAVRSGLNDDEQYGCVVPPIHLSSTYNFTGFNEPRAHDYSRRGNPTRDVVQRALAELEGGAGAVLTNTGMSAIHLVTTVFLKPGDLLVAPHDCYGGSYRLFDSLAKRGCYRVLFVDQGDEQALRAALAEKPKLVLVESPSNPLARVVDIAKICHLAREVGAVSVVDNTFLSPALQNPLALGADLVLHSCTKYLNGHSDVVAGVVIAKDPDVVTELAWWANNIGVTGGAFDSYLLLRGLRTLVPRMELAQRNAQAIVKYLQTQPLVKKLYHPSLPENQGHEIAARQQKGFGAMLSFELDGDEQTLRRFLGGLSLFTLAESLGGVESLISHAATMTHAGMAPEARAAAGISETLLRISTGIEDGEDLIADLENGFRAANKG
B2: metB L151Q (protein)
chain: MTRKQATIAVRSGLNDDEQYGCVVPPIHLSSTYNFTGFNEPRAHDYSRRGNPTRDVVQRALAELEGGAGAVLTNTGMSAIHLVTTVFLKPGDLLVAPHDCYGGSYRLFDSLAKRGCYRVLFVDQGDEQALRAALAEKPKLVLVESPSNPLQRVVDIAKICHLAREVGAVSVVDNTFLSPALQNPLALGADLVLHSCTKYLNGHSDVVAGVVIAKDPDVVTELAWWANNIGVTGGAFDSYLLLRGLRTLVPRMELAQRNAQAIVKYLQTQPLVKKLYHPSLPENQGHEIAARQQKGFGAMLSFELDGDEQTLRRFLGGLSLFTLAESLGGVESLISHAATMTHAGMAPEARAAAGISETLLRISTGIEDGEDLIADLENGFRAANKG
B3: metL F532A (protein)
chain: MSVIAQAGAKGRQLHKFGGSSLADVKCYLRVAGIMAEYSQPDDMMVVSAAGSTTNQLINWLKLSQTDRLSAHQVQQTLRRYQCDLISGLLPAEEADSLISAFVSDLERLAALLDSGINDAVYAEVVGHGEVWSARLMSAVLNQQGLPAAWLDAREFLRAERAAQPQVDEGLSYPLLQQLLVQHPGKRLVVTGFISRNNAGETVLLGRNGSDYSATQIGALAGVSRVTIWSDVAGVYSADPRKVKDACLLPLLRLDEASELARLAAPVLHARTLQPVSGSEIDLQLRCSYTPDQGSTRIERVLASGTGARIVTSHDDVCLIEFQVPASQDFKLAHKEIDQILKRAQVRPLAVGVHNDRQLLQFCYTSEVADSALKILDEAGLPGELRLRQGLALVAMVGAGVTRNPLHCHRFWQQLKGQPVEFTWQSDDGISLVAVLRTGPTESLIQGLHQSVFRAEKRIGLVLFGKGNIGSRWLELFAREQSTLSARTGFEFVLAGVVDSRRSLLSYDGLDASRALAFFNDEAVEQDEESLALWMRAHPYDDLVVLDVTASQQLADQYLDFASHGFHVISANKLAGASDSNKYRQIHDAFEKTGRHWLYNATVGAGLPINHTVRDLIDSGDTILSISGIFSGTLSWLFLQFDGSVPFTELVDQAWQQGLTEPDPRDDLSGKDVMRKLVILAREAGYNIEPDQVRVESLVPAHCEGGSIDHFFENGDELNEQMVQRLEAAREMGLVLRYVARFDANGKARVGVEAVREDHPLASLLPCDNVFAIESRWYRDNPLVIRGPGAGRDVTAGAIQSDINRLAQLL
B4: metL F532P (protein)
chain: MSVIAQAGAKGRQLHKFGGSSLADVKCYLRVAGIMAEYSQPDDMMVVSAAGSTTNQLINWLKLSQTDRLSAHQVQQTLRRYQCDLISGLLPAEEADSLISAFVSDLERLAALLDSGINDAVYAEVVGHGEVWSARLMSAVLNQQGLPAAWLDAREFLRAERAAQPQVDEGLSYPLLQQLLVQHPGKRLVVTGFISRNNAGETVLLGRNGSDYSATQIGALAGVSRVTIWSDVAGVYSADPRKVKDACLLPLLRLDEASELARLAAPVLHARTLQPVSGSEIDLQLRCSYTPDQGSTRIERVLASGTGARIVTSHDDVCLIEFQVPASQDFKLAHKEIDQILKRAQVRPLAVGVHNDRQLLQFCYTSEVADSALKILDEAGLPGELRLRQGLALVAMVGAGVTRNPLHCHRFWQQLKGQPVEFTWQSDDGISLVAVLRTGPTESLIQGLHQSVFRAEKRIGLVLFGKGNIGSRWLELFAREQSTLSARTGFEFVLAGVVDSRRSLLSYDGLDASRALAFFNDEAVEQDEESLPLWMRAHPYDDLVVLDVTASQQLADQYLDFASHGFHVISANKLAGASDSNKYRQIHDAFEKTGRHWLYNATVGAGLPINHTVRDLIDSGDTILSISGIFSGTLSWLFLQFDGSVPFTELVDQAWQQGLTEPDPRDDLSGKDVMRKLVILAREAGYNIEPDQVRVESLVPAHCEGGSIDHFFENGDELNEQMVQRLEAAREMGLVLRYVARFDANGKARVGVEAVREDHPLASLLPCDNVFAIESRWYRDNPLVIRGPGAGRDVTAGAIQSDINRLAQLL
B5: metK L186W (protein)
chain: MAKHLFTSESVSEGHPDKIADQISDAVLDAILEQDPKARVACETYVKTGMVLVGGEITTSAWVDIEEITRNTVREIGYVHSDMGFDANSCAVLSAIGKQSPDINQGVDRADPLEQGAGDQGLMFGYATNETDVLMPAPITYAHRLVQRQAEVRKNGTLPWLRPDAKSQVTFQYDDGKIVGIDAVVWSTQHSEEIDQKSLQEAVMEEIIKPILPAEWLTSATKFFINPTGRFVIGGPMGDCGLTGRKIIVDTYGGMARHGGGAFSGKDPSKVDRSAAYAARYVAKNIVAAGLADRCEIQVSYAIGVAEPTSIMVETFGTEKVPSEQLTLLVREFFDLRPYGLIQMLDLLHPIYKETAAYGHFGREHFPWEKTDKAQLLRDAAGLK

Each protein was assayed against Escherichia coli (laboratory strain) (assay: barcode share on antibiotic plates over drug-free plates; higher = less susceptible). Settings: antibiotic: gentamicin; 2× MIC (MIC 0.45 µg/mL).
Method: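 A pool of E. coli strains, each edited to carry one amino-acid change in an essential protein, was grown for 48 h on minimal glucose agar with or without antibiotic; strain barcodes were sequenced; mean of two replicates.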

Question: For B1, which “fold change of barcode share” value is on record?
Answer: Its value is under 0.00919.

Question: With B2 as the protein, how does the “fold change of barcode share” value read?
Answer: The value was under 0.00285.

Question: B3 was tested. Which “fold change of barcode share” value did it give?
Answer: Its value is under 0.0196.

Question: How did the “fold change of barcode share” value turn out when B4 was run?
Answer: The value was under 0.0143.

Question: B5 was tested. Which “fold change of barcode share” value did it give?
Answer: The value was 0.0131 ± 0.0084.
